The list shows a part of the results. Further columns of the screen follow, without active or inactive calls.
What was measured:
Test in all cases: Primary Screen for Target Class Profiling of Small Molecule Inhibitors of Methyltransferases
[1] = biological target: Glycine N-methyltransferase (Homo sapiens) (UniProt Q14749); conditions: purified enzyme, MTase-Glo SAH luminescence; measured here: GNMT inhibition; at 40 µM; stronger effect = lower value
Outline: (§1)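 Each enzyme was assayed with SAM and its substrate. SAH formation detected by MTase-Glo luminescence; single-point 40 uM screen[…].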

[2] = biological target: Guanidinoacetate N-methyltransferase (Homo sapiens) (UniProt Q14353); conditions: purified enzyme, MTase-Glo SAH luminescence; measured here: GAMT inhibition; at 40 µM; stronger effect = lower value
Outline: as §1

[3] = biological target: Histamine N-methyltransferase (Homo sapiens) (UniProt P50135); conditions: purified enzyme, MTase-Glo SAH luminescence; measured here: HNMT inhibition; at 40 µM; stronger effect = lower value
Outline: as §1

[4] = biological target: Nicotinamide N-methyltransferase (Homo sapiens) (UniProt P40261); conditions: purified enzyme, MTase-Glo SAH luminescence; measured here: NNMT inhibition; at 40 µM; stronger effect = lower value
Outline: as §1

[5] = biological target: Phenylethanolamine N-methyltransferase (Homo sapiens) (UniProt P11086); conditions: purified enzyme, MTase-Glo SAH luminescence; measured here: PNMT inhibition; at 40 µM; stronger effect = lower value
Outline: as §1
On the % scale 0 is the no-effect control and ±100 the full control effect.

Compound | activity change, negative = inhibition [1] | activity change, negative = inhibition [2] | activity change, negative = inhibition [3] | activity change, negative = inhibition [4] | activity change, negative = inhibition [5]
Cc1ccc(NC(=O)Cn2nc3n(CCc4ccccc4)c(=O)c4ccccc4n3c2=O)c(Cl)c1 | 1.66% | 0% | 3.26% | 2.7% | 1.33%
CC1=CC(=O)[C@]2(O[C@@H]3O[C@@H](C)[C@H](O)[C@@H](O)[C@H]3OC(=O)/C=C/c3ccccc3)C=CO[C@@H](O[C@@H]3O[C@H](CO)[C@@H](O)[C@H](O)[C@H]3O)[C@H]12 | 0% | 0.636% | 1.29% | -11.5% | 4.07%
COc1cncc([C@@H](NC(=O)Cc2ccsc2)C2CC(O)C2)c1 (stereo partly drawn) | -1.61% | -3.25% | 0.146% | -1.77% | 2.03%
Oc1c(C(c2ccccc2)N2CCOCC2)sc2nc(-c3ccco3)nn12 (stereo not drawn) |  | -10.8% |  | -22.7% | -2.76%
CCCCN(CC)CCN1C(=O)c2ccc(-c3ccco3)n2CC1(C)C(=O)NC1CCCCCCC1 (stereo not drawn) | 0.926% | 4.09% | -1.4% | -8.34% | -0.31%
C=CCN1CCN(C(=O)[C@@H]2Cc3c[nH]c4cccc(c34)[C@H](CC(C)C)N2)CC1 | -10% | -8.98% | -35.3% | -13.5% | -10.4%
CN1C(=O)c2cc(C(=O)NCCc3ccccc3Cl)nn2CC1(C)C(=O)NCc1ccccc1 (stereo not drawn) | 3.1% | 0% | 1.95% | 8.5% | 2%
CC1(C(=O)NCc2ccccc2)Cn2cnc(C(=O)NCc3ccccc3Cl)c2C(=O)N1C1CC1 (stereo not drawn) | -3.87% | -0.724% | 0.332% | -4.56% | 2.6%
COc1ccc(CN2C(=O)CSc3c(c4ccccc4n3C)C2C(=O)NCCCOC(C)C)cc1 (stereo not drawn) | 4.22% | -7.21% | 6.65% | -7.54% | -2.99%
CC1=C2C[C@H]3O[C@@]3(C)CCC3O[C@@]3(C)C[C@@]2(O)OC1=O (stereo partly drawn) | -0.535% | 7.46% | 7.44% | -4.01% | 7.76%
C/C=C/C=C/C(O)=C1\C(=O)[C@]2(C)C3C(C(=O)CC/C=C/C)=C(O)C4(C)C1[C@]1(C)O[C@@]4(O)[C@@]3(C)O[C@@]12O | -1.86% | -13.9% | -2.51% | -25.9% | -2.43%
O=C1NCCCCCCN(C(=O)c2cc(C3CC3)[nH]n2)[C@H]2CCCC[C@@H]12 | -1.49% | 0.725% | -0.529% | -2.11% | 3.27%
Cc1cc(NS(=O)(=O)c2cc3c(cc2C)n(C)c(=O)n3C)ccc1Br | -4.42% | 10% | 3.58% | -2.46% | 0.953%
COCC(c1ccccn1)N(C)Cc1cn(-c2ccccc2)nn1 (stereo not drawn) | -3.75% | -9.19% | -8.75% | -8.53% | -2.82%
Cc1ccc(NC(=O)Cn2c(=O)oc3cc(S(=O)(=O)NCc4ccccc4)ccc32)cc1C | -4.44% | 2.62% | 3.81% | 4.29% | 0.513%
O=C(NCc1ccc(Cl)cc1)c1cc2n(n1)CC(c1ccc3c(c1)OCO3)OC2 (stereo not drawn) | -2.88% | -5.82% | -4.26% | -1.87% | -6.94%

Source: PubChem BioAssay AID1745853 (National Center for Advancing Translational Sciences (NCATS), 2022)
